According to PubChem BioAssay AID1240 (Sanford-Burnham Center for Chemical Genomics, 2008):
About 800 (1.6%) of roughly 50,000 compounds showed an effect of 50% or more. The list shows a part of the results.

Target: Bcl-2-like protein 10 (Homo sapiens) (UniProt Q9HD36)
Test: Phenotype converters, Bcl-B/TR3 peptide binding displacement, primary biochemical FP (AID 1240);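 note: 0% = Bcl-B with tracer peptide and DMSO and 100% = tracer peptide lacking Bcl-B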
Conditions: GST-Bcl-B / FITC-TR3 peptide fluorescence polarization; stronger effect = higher value; compound at 3.75 mg/L

Sequence of UniProt Q9HD36 (Q9HD36 whole entry, looked up): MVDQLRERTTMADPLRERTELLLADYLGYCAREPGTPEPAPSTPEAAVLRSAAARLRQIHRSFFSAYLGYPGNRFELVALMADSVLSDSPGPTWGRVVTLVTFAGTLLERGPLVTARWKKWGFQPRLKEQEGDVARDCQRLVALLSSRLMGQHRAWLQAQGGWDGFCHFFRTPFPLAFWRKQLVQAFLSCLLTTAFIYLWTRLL

SMILES	displacement
COc1ccc(C2Nc3ccccc3C(=O)N2Cc2ccco2)cc1CSc1ccccn1 (stereo unspecified)	12.7%
C#CCOc1c(Br)cc(/C=C2\C(=O)NC(=O)N(c3ccc(Cl)cc3)C2=O)cc1OC	-0.6%
CCCc1cc(C(=O)OC)c(NC(=O)CCC(=O)O)s1	-0.4%
O=c1c2ccccc2nc(/C=C/c2c[nH]c3ccccc23)n1-c1ccc([N+](=O)[O-])cc1	-62.9%
c1ccc(CN2CCC(N3CCN(Cc4ccncc4)CC3)CC2)cc1	-1.9%
O=C1CC(Nc2ccc(F)cc2)C(=O)N1c1ccccc1C(F)(F)F (stereo unspecified)	1.1%
O=C(/C=C/c1ccc2c(c1)OCO2)Nc1ccc(F)cc1	11.7%
COc1ccc(C2C(C(C)=O)=C(Nc3ccccc3)CC(C)(O)C2C(C)=O)cc1OC (stereo unspecified)	8.4%
CCOc1ccc(C2Nc3ccccc3-c3nnc(SC)nc3O2)cc1 (stereo unspecified)	6%
O=C1SC(Nc2ccc(Cl)cc2)C(=O)N1c1ccccc1 (stereo unspecified)	2.5%
O=C(NNS(=O)(=O)c1ccc(Br)cc1)c1ccncc1	-11.3%
Cc1nc([N+](=O)[O-])cn1-c1cccc(O)c1	3%
CSc1ccccc1NC(=O)/C=C/C(=O)O	9.4%
CCCc1nc(-c2cc(OC)c(OC)c(OC)c2)no1	13.2%
COc1cc(/C=C(/C#N)C(=O)Nc2cccc(Br)c2)cc([N+](=O)[O-])c1O	28%
COc1ccc(NC(=O)c2cc3nc(-c4ccccc4)cc(-c4ccccc4)n3n2)c(OC)c1	10%
CCc1nc(-c2cc(OC)c(OC)c(OC)c2)no1	-8.9%
Cc1ccc(-c2nc3n(n2)C(=O)CCS3)cc1	9.8%
COc1ccccc1/C=C1\SC(=S)N(c2c(C)n(C)n(-c3ccccc3)c2=O)C1=O	1.2%
COc1ccc(C2CC(=O)C3=C(C2)Nc2ccccc2NC3c2cc3c(cc2Cl)OCO3)cc1 (stereo unspecified)	12.3%
COc1ccc(CCNC(=O)/C=C/c2cc(OC)ccc2OC)cc1	-0.6%
COc1ccc([N+](=O)[O-])cc1NCc1ccc(OC)c(OC)c1OC	4.2%

SMILES	displacement
COc1ccccc1N1C(=O)c2cccc3c(Cl)ccc(c23)C1=O	22.2%
N#CCCS(=O)(=O)Oc1ccccc1	-0.2%
O=C1c2ccccc2C(O)(c2ncc[nH]2)N1c1cccc(F)c1 (stereo unspecified)	-4.5%
Cc1c(Cl)cccc1NC(=O)C1CC(=O)N(c2ccccc2)C1 (stereo unspecified)	-5.8%
COc1ccc(/C=C\C(=O)C2C(=O)c3ccccc3C2=O)cc1	122%
Cc1ccc(-c2nnc(NC(=O)c3cccs3)s2)cc1	2.6%
CN(C)c1ccc(C(=O)Nc2ccc(S(N)(=O)=O)cc2)cc1	16.2%
COC(=O)C1=C(C)N(C)C(C)=C(C(=O)OC)C1c1ccccc1OC	-14.9%
c1ccc(-c2[nH]nc(-c3cccnc3)c2-c2nc3ccccc3[nH]2)cc1	14.7%
O=C(Nc1ccc(Cc2ccncc2)cc1)C12CC3CC(CC(C3)C1)C2	-1.6%
COc1ccc(OC)c(/C=N/NC(=O)c2cc[n+](Cc3ccccc3)cc2)c1	8.7%
CCCCOC(=O)C1=C(C)NC2=C(C(=O)CCC2)C1c1cc2c(cc1Br)OCO2 (stereo unspecified)	1.3%
COCCNC(=O)/C(=C\C=C\c1ccccc1)NC(=O)c1ccc(C)cc1	8.5%
Cc1oc(-c2ccccc2)cc1C(=O)Nc1ccc(CC(=O)O)cc1	-8.7%
CCN(CC)CCOC(=O)c1ccc(NC(=O)c2ccc(OC)c(OC)c2)cc1	-7.7%
CC(C)CNC(=O)c1cccc(NC(=O)c2ccc(F)cc2)c1	7.7%
COc1ccc(CN2CCN(C(=O)c3ccccc3)CC2)cc1Br	-6.4%
O=C(C1CC1c1ccccc1)N1CCN(C(c2ccccc2)c2ccccc2)CC1 (stereo unspecified)	12.3%
CCOC(=O)C1=C(C)N=c2s/c(=C\c3ccccc3)c(=O)n2C1c1ccc(Cl)cc1 (stereo unspecified)	3.8%
CCOC(=O)C1=C(C)NC(C)=C(C(=O)OCC)C1c1ccc(F)cc1	0%
O=C(NCC1CCCO1)/C(=C/c1cccc(Oc2ccccc2)c1)NC(=O)c1ccccc1 (stereo unspecified)	11.3%
O=C(N=NC(=O)c1ccco1)c1ccc2c(O)n(N3C(=O)c4ccccc4C3=O)c(O)c2c1	13.5%

SMILES	displacement
CC1=CC(C)(C)Nc2ccc(OC(=O)c3sc4cc([N+](=O)[O-])ccc4c3Cl)cc21	-8.2%
O=[N+]([O-])c1ccc(N2CCN(S(=O)(=O)c3ccccc3)CC2)cc1NCCOc1ccccc1	12.7%
CCCCOc1cccc(C(=O)Nc2ccc(C)cc2[N+](=O)[O-])c1	4.8%
Cc1cccc(C(=O)Nc2ccc(NC(=O)c3ccccc3)c(C)c2)c1	-9%
COc1c(Cl)cc(C(=O)Nc2cccc(C(F)(F)F)c2)cc1Cl	3%
O=C(Nc1nc2ccc(Cl)cc2s1)C(c1ccccc1)c1ccccc1	4.3%
O=C(Nc1cccc2ccccc12)c1cnn2c1NC(c1ccc3c(c1)OCO3)CC2C(F)(F)F (stereo unspecified)	3.9%
NC(=O)C(F)(Cl)c1c(F)c(F)c(F)c(-c2ccccc2)c1-c1ccccc1 (stereo unspecified)	17.7%
CCOC(=O)c1c(C)n(C)c2cc(Br)c(C(=O)OC)cc12	13.8%
Cc1ccc2oc(-c3ccc(N=Cc4cccc(C)c4O)cc3)nc2c1	16.8%
Cc1ccc(NC(=O)/C=C\C(=O)O)cc1C	13.2%
C/C(=N\N=C1\NC(=O)C(CC(=O)Nc2ccc(Cl)cc2)S1)C(C)(C)C (stereo unspecified)	7.8%
COc1ccc(Cl)cc1C(=O)Nc1cccc2nsnc12	12.8%
CCOc1ccc(C(=O)Nc2nc3ccc([N+](=O)[O-])cc3s2)cc1	-18.5%
CN(C)c1ccc(C2C=C(Nc3ccccc3)C(=O)N2c2ccccc2)cc1 (stereo unspecified)	-24.8%
O=C1c2ccccc2C(=O)c2c1cccc2N(Cc1ccccc1)C(=O)C(F)(F)F	8.8%
COc1cc(/C=N/O)ccc1Oc1ccc([N+](=O)[O-])cn1	9.7%
COc1cc(OC)cc(C(=O)Nc2c(C)ccc3nsnc23)c1	2%
CC(C)(NO)/C(=N/O)c1ccc(Br)cc1	9.1%
Cc1cccc(NC(=O)CSc2nc3ccc(C)cc3[nH]2)c1	18.1%
CC(=O)NS(=O)(=O)c1ccc(NC(=O)c2ccc([N+](=O)[O-])cc2Cl)cc1	-1%
Cc1ccc(-c2nc3cc(Cl)cc(Cl)c3o2)cc1NC(=O)Cc1ccccc1	-0.9%

SMILES	displacement
O=C(CCN1C(=O)/C(=C\c2cccs2)SC1=S)Nc1cccc(C(F)(F)F)c1	2.3%
Cc1cc(C(=O)NCc2cccnc2)ccc1[N+](=O)[O-]	-12.7%
O=c1oc2cc(O)c([N+](=O)[O-])cc2cc1-c1csc(-c2cc3ccccc3oc2=O)n1	-10%
COC(=O)c1c(C)oc2ccc(OCc3c(F)cccc3Cl)cc12	91%
CCOc1ccc2c3c(c(=O)oc2c1OCC)CCCC3	-6.4%
Cc1cccc(C(=O)Nc2cc(C(F)(F)F)cc(C(F)(F)F)c2)c1	1.8%
CCOC(=O)CSc1nc(C)c(Cl)c(=O)[nH]1	0.6%
O=C(Cn1c(O)c(N=NC(=O)C(=O)Nc2ccc([N+](=O)[O-])cc2)c2ccccc21)Nc1ccccc1	-5.7%
COc1ccc(CNCc2ccc(Cl)cc2)cc1OC	-10.4%
Cc1ccc(S(=O)(=O)NC(c2ccccc2)c2ccc(Br)cc2)cc1[N+](=O)[O-] (stereo unspecified)	-9.6%
C=C(C)CN1CCN(c2c(Cc3ccccc3)c(C)c(C#N)c3nc4ccccc4n23)CC1	5.2%
CN(C)/C=C\C=C\C(=O)C1C2CC3CC(C2)CC1C3 (stereo unspecified)	-0.6%
C=CCN1C(=O)C(Cc2ccccc2)SC1=Nc1ccc(C(=O)O)cc1 (stereo unspecified)	0.5%
Cc1ccc(N2C(=O)C(Cl)=C(Nc3ccc(F)cc3)C2=O)c(C)c1	9.2%
COc1ccc(OC)c(N(CC(=O)NC(C)c2ccccc2)S(C)(=O)=O)c1 (stereo unspecified)	11.7%
O=C(Nc1ccc(N2CCOCC2)cc1)c1ccc(-c2ccccc2)cc1	37.6%
Cc1ccc(C(=O)Nc2ccc(N3CCOCC3)cc2)cc1	-3%
Cc1ccc(Cl)cc1N(Cc1ccc(C(N)=O)cc1)S(=O)(=O)c1ccccc1	9.1%
COc1ccc(C(=O)NCc2ccccn2)cc1[N+](=O)[O-]	13.5%
COc1ccc(NC2CC(=O)N(c3ccccc3)C2=O)cc1 (stereo unspecified)	-11.4%
Cc1n[nH]c(C)c1CCC(=O)N/N=C/c1c(Cl)cccc1Cl	6.8%
O=C(c1ccc(Cl)cc1)c1ccccc1C(=O)N1CCOCC1	1.4%

SMILES	displacement
O=C(O)COc1ccc(/C=C2\C(=O)NC(=S)N(c3ccc(F)cc3)C2=O)cc1Br	-13.9%
O=C1NN(c2ccc(F)c(Cl)c2)C(=O)/C1=C\c1ccc(-c2cccc(C(=O)O)c2)o1	10.8%
CCOC(=O)c1sc(NC(=O)CCN2C(=O)c3cccc([N+](=O)[O-])c3C2=O)c(C(=O)OCC)c1C	6%
CS(=O)(=O)N1CCN(Cc2ccc(Br)cc2)CC1	1.7%
C(=N\Nc1ccccn1)/c1cccs1	-4.2%
CCOC(=O)C1=C(C)NC2=C(C(=O)CCC2)C1c1ccc(I)cc1 (stereo unspecified)	2.3%
COc1ccc(Br)cc1/C=C/C(=O)Nc1ccc(OC(F)(F)F)cc1	0.8%
COc1cccc(NC2=C(Cl)C(=O)N(c3ccc(Br)cc3)C2=O)c1	13.4%
COc1cc2c(cc1OC)C(=S)NC1(CCCC1)C2	-7%
CCOC(=O)c1ccccc1NC(=O)CN(c1ccc(C)cc1)S(=O)(=O)c1ccc(SC)cc1	5%
O=C(/C=C\Nc1ccccn1)c1ccccc1	6.6%
CN(C)c1ccc(C=Nc2nonc2N)cc1	-9%
O=C(O)COc1ccccc1C1OC2CCCCC2C2=CCCCC21 (stereo unspecified)	10.9%
O=[N+]([O-])c1cccc(S(=O)(=O)NCc2cccnc2)c1	-3.2%
CCOc1ccc(NC(NC(=O)CN2C(=O)c3ccccc3S2(=O)=O)C(Cl)(Cl)Cl)cc1 (stereo unspecified)	10.3%
COc1ccc(NCN2C(=O)CSC2=O)cc1	9.8%
O=C(C1CN(S(=O)(=O)c2ccccc2)CCN1S(=O)(=O)c1ccccc1)N1CCCCCC1 (stereo unspecified)	-5.5%
NC(=O)C1CCN(C(=O)c2ccc([N+](=O)[O-])cc2)CC1	4.4%
